Screen size: about 48,000 compounds; about 1,200 (2.5%) were called active. Another 2% or so got no clear call; they are omitted.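 How the source made its calls: active means activation of at least 60% and not above a set upper limit (about 1 call in 100 departs from these limits); inconclusive means activation of 40% to 60%, or above that upper limit; inactive means activation under 40%.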 The list shows a part of the results.

This experiment addresses Probable G-protein coupled receptor 32 (Homo sapiens) (UniProt O75388). Put plainly: qHTS for Agonists of Human Resolvin D1 Receptor DRV1. Further: 0% is about no effect. The note with it: CHO-K1 GPR32 beta-arrestin PathHunter luminescence, 90 min; at 76.9 µM; active compounds read high; zero percent set by DMSO-only wells. The method, boiled down: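 Luminescent readout of beta-Gal complementation quantifies ligand-induced beta-arrestin association with GPR32 in CHO-K1 cells; 90 min compound incubation at 37 °C, detection 1 h at room temperature.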
UniProt O75388, sequence (O75388 whole entry, looked up): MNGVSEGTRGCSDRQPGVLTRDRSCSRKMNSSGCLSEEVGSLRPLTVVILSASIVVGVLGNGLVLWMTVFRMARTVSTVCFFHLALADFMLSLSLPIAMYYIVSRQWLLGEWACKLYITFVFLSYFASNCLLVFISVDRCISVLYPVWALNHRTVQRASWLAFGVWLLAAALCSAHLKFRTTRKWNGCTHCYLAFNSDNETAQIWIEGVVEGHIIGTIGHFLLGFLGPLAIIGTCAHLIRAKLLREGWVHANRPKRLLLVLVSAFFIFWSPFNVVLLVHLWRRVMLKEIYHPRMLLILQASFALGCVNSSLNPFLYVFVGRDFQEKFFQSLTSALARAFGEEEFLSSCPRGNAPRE
A general note: In qHTS, concentration-response curves come from the screen itself.
With `Cc1nc(-c2ccc(C)c(N3CCN(C(=O)Nc4cccc(Cl)c4C)CC3)c2)no1`, the activation is inactive: 18.6%.
Consider `CCOC(=O)C1CCCN(Cc2cn3c(-c4cccc(Br)c4)nnc3s2)C1` (stereo not given), for which the activation is inactive: 6.42%.
Next, `Cc1nc(-c2ccc(F)cc2)sc1CCNC(=O)C(=O)Nc1ccc2c(c1)OCCO2`: inactive: 32.7%; `OCCN(CCO)c1ncnc2c1cnn2-c1ccc(F)cc1`: inactive: 8.99%.
`COC(=O)c1cc(-c2ccc(C)cc2)c2c(=O)n(C)c(=O)n(C)c2n1`: the activation is inactive: -0.0924%.
Take `COc1ccccc1C(=O)Oc1ccc(C(c2c(C)[nH][nH]c2=O)c2c(C)[nH][nH]c2=O)cc1`: the activation is inactive: -44.2%.
Next, `COc1ccc2oc(=O)c(C(=O)N3CCN(c4ccc(C)cc4)CC3)cc2c1`: inactive: 16.3%.
Regarding `COc1ccc(CC(=O)Nc2ccc(-c3nc4ccccc4s3)c(C)c2)cc1OC`, the activation is inactive: 11.2%.
The value for `COc1ccc(-c2cc(C(F)(F)F)nc(NCCc3ccccc3)n2)cc1OC` was inactive: -8.16%; that for `Cc1csc2nc(COC(=O)c3ccccc3NC(=O)c3ccc(C(C)(C)C)cc3)cc(=O)n12` was inactive: -8.07%; that for `COc1cccc(CNC(=O)c2cc(S(=O)(=O)N3CCCCC3)c[nH]2)c1` was inactive: 6.73%.
Next, `Cc1ccc(S(=O)(=O)NC(=O)NN2CC3CCCC3C2)cc1` (stereo not given): inactive: -28.7%; `CSc1nn(Cc2ccc(C)cc2)c(N)c1S(=O)(=O)c1ccccc1`: inactive: 43.3%.
Next, `COc1ccc(-c2cc(C(=O)Nc3c(C)n(C)n(-c4ccccc4)c3=O)no2)cc1OC`: inactive: -9.29%; `O=C(CCCn1c(=O)c2cccn2c2ccccc21)NCCc1ccc(Cl)cc1`: inactive: -15.4%; `CCOC(=O)c1c(NC(=O)C2c3ccccc3Oc3ccccc32)sc(C)c1C`: inactive: -23.1%.
Turning to `Cc1c(CC(=O)NCc2ccc(F)cc2)c(=O)oc2cc(O)c(Cl)cc12`, the activation is inactive: 6.55%.
Next, `COc1ccc(NC(=O)CC2NCCNC2=O)c(OC)c1` (stereo not given): inactive: -8.93%; `CCOc1cccc2sc(N(Cc3cccnc3)C(=O)c3ccc(C#N)cc3)nc12`: inactive: -29.6%; `Cc1cc(C)n(-c2nc3ccccc3nc2N2CCN(c3cccc(C(F)(F)F)c3)CC2)n1`: inactive: -3.46%.
As to `O=C(NCc1ccccc1Cl)c1ccc2oc(=O)n(Cc3ccccc3)c2c1`, the activation was inactive: -4.48%.
The value for `Cc1cccc(-n2nc(C)c(C(=O)Nc3cc(C)ccc3C)c2-n2cccc2)c1` was inactive: -19.8%.
`Cc1ccc(-n2c(SCc3ccccc3)nc3c([nH]c4ccccc43)c2=O)cc1`: the activation is inactive: 15.8%.
Take `CCN(CC)CCOc1ccc(Cc2ccccc2)cc1`: the activation was inactive: 6.89%.
The value for `Cc1ccc(SCc2nc(-c3ccc(C(=O)NCCc4ccc(Cl)cc4)cc3)oc2C)cc1` was inactive: 15.9%.
Next, `Cc1nn2c(=O)cc(COC(=O)c3ccccc3NC(=O)COc3ccccc3C)nc2s1`: inactive: -13%; `O=C(NCc1ccccc1F)c1ccc(CSc2nc3cccnc3n2Cc2ccccc2)cc1`: inactive: 9.69%; `COc1ccc(OC)c(CNc2nc3ccc(C)cc3n3nnnc23)c1`: inactive: -16.6%.
Take `COC(=O)c1cc2sc(Cl)cc2n1CC(=O)Nc1cc(C)cc(C)c1`: the activation is inactive: -16.6%.
Take `COc1ccc(OC)c(NC(=O)[C@H](CSCc2ccccc2)N2Cc3ccccc3C2=O)c1`: the activation is inactive: -14.4%.
`CCOC(=O)c1cc(OC(=O)c2ccccc2Cl)n(-c2ccccc2)n1`: the activation was inactive: -9.01%.
Next, `Cc1ccc(CNC(=O)C(=O)NCC(c2ccco2)S(=O)(=O)c2ccccc2)cc1` (stereo not given): inactive: -1.22%; `N#Cc1nc(-c2ccc(COc3ccccc3)o2)oc1N1CCCCC1`: inactive: -14.7%.
Next, `COC(=O)c1cc2occc2n1CC(=O)Nc1ccc(N(C)C)cc1`: inactive: -19.8%; `Cc1ccc(CNC(=O)Cn2c(=O)n(-c3ccc(C)cc3)c(=O)c3c2c2cc(C)ccc2n3C)cc1`: inactive: -2.23%; `N#CC1=C2SCN(C3CCCCC3)CN2C(=O)CC1c1ccc(Cl)cc1` (stereo not given): inactive: 34.7%.
Regarding `Cc1ccccc1NC(=O)Cn1c(=O)n(Cc2ccccc2)c(=O)c2c(C)c(C)sc21`, the activation was inactive: -7.59%.
Next, `Cn1c(=O)cc(SCC(=O)N2CCN(c3ccccc3F)CC2)c2ccccc21`: inactive: -33.5%; `CCC(Sc1nnc2c3ccccc3n(CC)c2n1)C(=O)Nc1nnc(C(C)C)s1` (stereo not given): inactive: -1.86%.
With `COc1ccc(-c2cc3nc(C4CCN(C(=O)OC(C)(C)C)CC4)c(C(=O)Nc4cc(C)cc(C)c4)cn3n2)cc1`, the activation is inactive: -0.188%.
Next, `COc1ccc2c(CNCCc3cccs3)c(C(=O)O)n(Cc3ccc(F)cc3Cl)c2c1`: inactive: -1.17%; `CCOc1ccc(CN(CCc2ccc3c(c2)OCO3)Cc2cc(OC)c(OC)cc2OC)cc1`: inactive: -24.4%.
For the compound `CCCCN1CC(c2nc3ccccc3n2CCCCOc2cccc(C)c2C)CC1=O` (stereo not given), the activation is active: 109%.
For `CCCN1CCN(CCCNC(=O)c2ccc3nc(Cc4ccccc4)oc3c2)CC1`, the activation is inactive: -6.8%.
Turning to `CCOc1ccc(NC(=O)CC2C(=O)N(c3cccc(C)c3)C(=O)N2Cc2cccs2)cc1` (stereo not given), the activation is inactive: -23.1%.
Next, `COc1ccc(C)cc1NC(=O)c1cc(S(=O)(=O)N2CCCCC2)c[nH]1`: inactive: -13.6%.
The value for `COc1cc(NC(=O)CCc2c(C)nn(-c3ccc(N4CCCCC4)nn3)c2C)cc(OC)c1OC` was inactive: -10.2%; that for `Cc1cc(-n2c(C)nc3ccccc3c2=O)ccc1NC(=O)c1ccccc1[N+](=O)[O-]` was active: 94%.
Next, `Cc1cc(C)cc(NC(=O)CCCc2nc(-c3ccco3)no2)c1`: inactive: -8.91%; `CCC(C(=O)Nc1cc(F)ccc1F)n1nc(C)c2c(C)n(-c3ccc(C)cc3)nc2c1=O` (stereo not given): inactive: -20.4%; `O=c1c(O)c(-c2cc(O)c(O)c(O)c2)oc2cc(O)cc(O)c12`: inactive: 3.38%.
With `COc1ccc(CCC(=O)NC2CC(=O)N(c3ccc(OC)cc3)C2)cc1` (stereo not given), the activation is inactive: -7.67%.
In the case of `Cc1cc(C)c2c(=O)cc(CSc3n[nH]c(C)n3)[nH]c2c1`, the activation is inactive: 7.2%.
Next, `Cc1cccc(NC(=O)C(=O)NCCc2csc(-c3ccc(F)cc3)n2)c1C`: inactive: 15.7%.
The value for `CCN(C(=O)c1cn(CC)c(=O)c2cc(OC)c(OC)cc12)c1ccccc1F` was inactive: -18%; that for `CCc1ccccc1NC(=O)c1noc2c1CC(C(C)(C)C)CC2` (stereo not given) was inactive: -10.3%.
Consider `COc1cc(C(=O)Nc2ccccc2-c2nc(-c3ccc(C)cc3)no2)cc(OC)c1OC`, for which the activation is inactive: -14.1%.
On to `O=C(CSCc1ccc(F)cc1)N1CCc2c([nH]c3ccccc23)C1c1ccc(Cl)cc1` (stereo not given), for which the activation was inactive: -40.1%.
`Cc1cc(N2CCCCC2)nc2ccc(NC(=O)CCC(=O)N3CCN(c4ccccc4)CC3)cc12`: the activation is inactive: -11.5%.
In the case of `CC1=C(C(=O)Nc2cc(Cl)ccc2C)C(c2cccs2)n2ncnc2N1` (stereo not given), the activation was inactive: 20.1%.
The value for `Cc1cccc(N2CCN(C(=O)c3ccc(Nc4nc5ccccc5n5nnnc45)cc3)CC2)c1C` was inactive: -1.06%.
With `CCOC(=O)c1ccc(NC(=O)C2=C(C)Nc3nc(CCCO)nn3C2c2ccc(OC)cc2)cc1` (stereo not given), the activation is inactive: -20.7%.
For the compound `COc1ccc(NC(=O)CN2C(=O)c3cccnc3Sc3ccccc32)cc1OC`, the activation was inactive: -16.1%.
Consider `COc1ccc(CCNC(=O)C(C)n2c(=O)cc(-c3ccccc3)c3c(C)nn(C)c32)cc1OC` (stereo not given), for which the activation is inactive: 0.716%.
Next, `CCSc1nc(-c2ccccc2F)nc2c1Cc1c(CO)cnc(C)c1O2`: inactive: 20.5%; `COc1cc(C2C(=O)N(C3CCCCC3)CC(=O)N2C2CCCCC2)ccc1OC(C)C` (stereo not given): inactive: -14%; `CCOc1ccc(N(CC)C(=O)c2cc3c(s2)-c2ccccc2OC3)cc1`: inactive: 8.4%.
For `CC1CCN(c2nc3ccc(C(=O)N4CCN(c5ccccc5)CC4)cc3s2)CC1`, the activation was inactive: 6.23%.
The value for `Cc1ccc(-c2nc3sccn3c2Nc2ccc(C)c(C)c2)cc1` was inactive: 10.4%; that for `COc1cccc(N2CCN(C(=O)c3nn(C)c4c3CSc3ccc(C)cc3-4)CC2)c1` was inactive: 9.02%.
With `CCC(=O)N1CCc2cc(CNC(=O)c3ccc(F)cc3)ccc21`, the activation is inactive: -9.14%.
As to `Cc1cc(Cl)ccc1NC(=O)Cn1nnc2sc(-c3ccccc3)cc2c1=O`, the activation was inactive: -0.339%.
Next, `COc1cc(NC(=O)N2CCC(CN3CCOCC3)CC2)cc(OC)c1OC`: inactive: 0.405%; `CC(C)c1ccc(Nc2ncnc3onc(-c4ccc(F)cc4)c23)cc1`: inactive: -7.08%.
Next, `COCCNc1nc2c(c(=O)n(Cc3cccc(Br)c3)c(=O)n2C)n1C`: inactive: -6.23%; `Cc1nc2nc(SCC(=O)NC3CCCCC3)nn2c(C)c1Cc1ccccc1Cl`: inactive: 0.962%; `COC(=O)c1ccc2c(c1)N(Cc1ccc(Cl)cc1)C(=O)c1ccccc1S2`: inactive: 7.74%.
The value for `CCCCn1nc(NC(=O)c2cccc(Cl)c2)c2cc3cccc(C)c3nc21` was inactive: -13.8%; that for `COc1cccc(N2CCN(C(=O)c3cc4c(=O)oc5ccc(C)cc5c4s3)CC2)c1` was inactive: 3.75%; that for `CCCn1c2ccccc2c2cnn(CC(=O)N3CCCC(C)C3)c(=O)c21` (stereo not given) was inactive: -13.6%.
In the case of `Cc1ccc(CNC(=O)C2CCN(S(=O)(=O)c3cn(C)cn3)CC2)cc1`, the activation was inactive: -7.01%.
Consider `O=C(NCCCc1nc2ccccc2n1Cc1ccc(Cl)cc1)C1CCCCC1`, for which the activation was inactive: 39.8%.
With `CCc1ccccc1-n1c(C)nc2cc(C(=O)NCCc3ccc(Cl)cc3)ccc21`, the activation is inactive: -34.4%.
In the case of `Cc1ccc(-n2ncc(C(=O)NCCN3CCCC3)c2C2CCN(C(=O)OC(C)(C)C)CC2)cc1C`, the activation is inactive: -26.1%.
`CC(C)N(Cc1ccccc1)S(=O)(=O)c1ccc(-c2cc(C(F)(F)F)on2)s1`: the activation is inactive: -19.8%.

For the origin of these results see PubChem BioAssay AID1346428 (National Center for Advancing Translational Sciences (NCATS), 2018).
